The record followed here is patent US20210238308A1 (Chugai, published 2021).

In the experiment the target is T1, human TRIM21 PRYSPRY domain with N-terminal 6xHis tag (human).
T1 construct: Expressed from pET28a in E. coli; also called hTRIM21
T1 chain: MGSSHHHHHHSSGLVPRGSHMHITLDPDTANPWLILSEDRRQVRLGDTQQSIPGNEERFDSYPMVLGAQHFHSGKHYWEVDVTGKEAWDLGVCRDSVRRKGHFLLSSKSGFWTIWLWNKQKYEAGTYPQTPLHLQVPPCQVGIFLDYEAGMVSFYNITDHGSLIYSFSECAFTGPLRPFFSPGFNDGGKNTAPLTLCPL
In words: SPR, Ab captured on Protein L.

B1: 3D8VH-G1m/hT4VL-KT0.Avi H435F (antibody, human IgG1, kappa)
heavy: EVQLVESGGGLVQPGGSLRLSCAASGYTFTSYVMHWVRQAPGKGLEWVSAINPYNDGNYYADSVKGRFTISRDNSRKTLYLQMNSLRAEDTAVYYCARGAYKRGYAMDYWGQGTTVTVSSASTKGPSVFPLAPSSKSTSGGTAALGCLVKDYFPEPVTVSWNSGALTSGVHTFPAVLQSSGLYSLSSVVTVPSSSLGTQTYICNVNHKPSNTKVDKKV[human IgG1 Fc with H435F (EU numbers) omitted here]
light: [about 200 residues omitted here]GGGGSGLNDIFEAQKIEWHE
Consider B1, for which the binding result is reported as “no binding (tested: 200 nM)”.

B2: 3D8VH-G1m/hT4VL-KT0.Avi L432R (antibody, human IgG1, kappa)
heavy: EVQLVESGGGLVQPGGSLRLSCAASGYTFTSYVMHWVRQAPGKGLEWVSAINPYNDGNYYADSVKGRFTISRDNSRKTLYLQMNSLRAEDTAVYYCARGAYKRGYAMDYWGQGTTVTVSSASTKGPSVFPLAPSSKSTSGGTAALGCLVKDYFPEPVTVSWNSGALTSGVHTFPAVLQSSGLYSLSSVVTVPSSSLGTQTYICNVNHKPSNTKVDKKV[human IgG1 Fc with L432R (EU numbers) omitted here]
light: [about 200 residues omitted here]GGGGSGLNDIFEAQKIEWHE
Turning to B2, the binding result was “no binding (tested: 200 nM)”.

B3: 3D8VH-G1m/hT4VL-KT0.Avi M428R (antibody, human IgG1, kappa)
heavy: EVQLVESGGGLVQPGGSLRLSCAASGYTFTSYVMHWVRQAPGKGLEWVSAINPYNDGNYYADSVKGRFTISRDNSRKTLYLQMNSLRAEDTAVYYCARGAYKRGYAMDYWGQGTTVTVSSASTKGPSVFPLAPSSKSTSGGTAALGCLVKDYFPEPVTVSWNSGALTSGVHTFPAVLQSSGLYSLSSVVTVPSSSLGTQTYICNVNHKPSNTKVDKKV[human IgG1 Fc with M428R (EU numbers) omitted here]
light: [about 200 residues omitted here]GGGGSGLNDIFEAQKIEWHE
For B3, the binding result is “no binding (tested: 200 nM)”.

B4: 3D8VH-G1m/hT4VL-KT0.Avi N434G (antibody, human IgG1, kappa)
heavy: EVQLVESGGGLVQPGGSLRLSCAASGYTFTSYVMHWVRQAPGKGLEWVSAINPYNDGNYYADSVKGRFTISRDNSRKTLYLQMNSLRAEDTAVYYCARGAYKRGYAMDYWGQGTTVTVSSASTKGPSVFPLAPSSKSTSGGTAALGCLVKDYFPEPVTVSWNSGALTSGVHTFPAVLQSSGLYSLSSVVTVPSSSLGTQTYICNVNHKPSNTKVDKKV[human IgG1 Fc with N434G (EU numbers) omitted here]
light: [about 200 residues omitted here]GGGGSGLNDIFEAQKIEWHE
Take B4: the binding result was “no binding (tested: 200 nM)”.
